PMC4336329 (PLoS ONE, 2015)
The whole screen tested about 310,000 compounds, of which about 14,000 (4.5%) showed an effect of 50% or more. The effect is printed as a negative number. The list shows a part of the results.

Biological target: human ether-à-go-go-related gene (hERG) potassium channel (human, UniProt Q12809)
Experiment: primary screen, population patch clamp on CHO cells stably expressing hERG
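Also: peak tail current of the secondary pulse compared with the same well before compound.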

Sequence of human ether-à-go-go-related gene (hERG) potassium channel (Q12809 whole entry, looked up): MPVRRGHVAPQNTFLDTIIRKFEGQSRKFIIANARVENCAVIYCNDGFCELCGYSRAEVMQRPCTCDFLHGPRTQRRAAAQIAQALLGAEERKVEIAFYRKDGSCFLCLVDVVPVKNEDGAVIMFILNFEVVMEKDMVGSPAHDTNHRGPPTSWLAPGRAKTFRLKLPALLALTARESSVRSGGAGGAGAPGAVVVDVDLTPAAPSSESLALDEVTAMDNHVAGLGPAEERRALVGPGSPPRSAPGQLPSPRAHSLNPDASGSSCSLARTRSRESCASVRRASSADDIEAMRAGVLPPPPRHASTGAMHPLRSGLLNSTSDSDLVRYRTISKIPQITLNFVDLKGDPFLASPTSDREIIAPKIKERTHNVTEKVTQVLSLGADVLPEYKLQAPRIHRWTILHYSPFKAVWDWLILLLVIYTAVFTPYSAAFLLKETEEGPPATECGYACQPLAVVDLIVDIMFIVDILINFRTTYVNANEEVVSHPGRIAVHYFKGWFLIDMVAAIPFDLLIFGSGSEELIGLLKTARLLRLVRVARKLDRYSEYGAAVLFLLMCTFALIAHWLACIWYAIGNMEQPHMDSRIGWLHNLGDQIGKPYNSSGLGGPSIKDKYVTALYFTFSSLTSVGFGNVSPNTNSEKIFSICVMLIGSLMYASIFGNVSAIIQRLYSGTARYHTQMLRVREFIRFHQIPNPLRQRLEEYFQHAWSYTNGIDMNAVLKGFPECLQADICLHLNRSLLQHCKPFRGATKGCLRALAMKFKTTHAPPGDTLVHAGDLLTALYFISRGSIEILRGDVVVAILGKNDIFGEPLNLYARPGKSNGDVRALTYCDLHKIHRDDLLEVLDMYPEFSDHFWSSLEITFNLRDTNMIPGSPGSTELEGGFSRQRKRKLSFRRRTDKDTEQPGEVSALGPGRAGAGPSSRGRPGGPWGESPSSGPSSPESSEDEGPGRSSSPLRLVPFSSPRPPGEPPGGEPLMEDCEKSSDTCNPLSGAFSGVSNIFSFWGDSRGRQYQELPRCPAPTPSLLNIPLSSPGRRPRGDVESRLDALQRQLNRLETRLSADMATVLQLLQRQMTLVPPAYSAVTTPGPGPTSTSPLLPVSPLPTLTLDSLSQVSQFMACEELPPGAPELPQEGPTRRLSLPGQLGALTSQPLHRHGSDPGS

SMILES | hERG current change (%, negative = inhibition) at 10uM [%]
NC(=O)c1c(NC(=O)c2cccnc2)sc2c1CCCC2 | 17.5
O=C(Nc1ccc(N2CCN(C(=O)c3ccco3)CC2)cc1)c1ccccc1F | 4.64
COc1ccc(C(CCNC(C)c2ccccc2)C(C)C)cc1 (stereo not shown) | -4.48
O=S(=O)(c1ccc(SCc2ccccc2F)nc1)N1CCCC1 | -12.6
Cc1nn(C(C)C(=O)NC2C(=O)N3C(C(=O)O)=C(CSc4nnnn4C)CSC23)cc1Cl (stereo not shown) | 13.6
O=C(Cc1ccccc1F)Nc1ccccc1-c1ccccc1 | 27.6
CCOC(=O)c1ccc(Oc2nc(NC)nc(OC)n2)cc1 | 2.59
CS(=O)(=O)c1ccccc1-c1nnc(NC(=O)c2ccc(S(=O)(=O)N3CCCC3)cc2)o1 | 12.8
N#Cc1cccc(NC(=O)Cn2cnc(S(=O)(=O)N3CCCC3)c2)c1 | 12.7
Cc1c(C(=O)c2ccccc2)c(=O)n(C)c(=O)n1C | 12.2
COc1ccc(Cn2nnnc2C(c2ccccn2)N2CCN(c3cc(Cl)ccc3C)CC2)cc1 (stereo not shown) | -9.87
CCCCNS(=O)(=O)c1ccc(OC)cc1 | 13
O=C(Cn1c(C(=O)N2CCc3ccccc3C2)cc2sccc21)c1ccccc1 | 4.01
O=C(NCc1ccncc1)C1CCN(S(=O)(=O)c2ccc(F)cc2)CC1 | -9.11
CCOC(=O)c1ccc(NC(=O)Nc2ccn(C)n2)cc1 | 0.444
CN(CC(=O)NCc1ccccn1)S(=O)(=O)c1ccc(F)cc1 | -9.45
CC1=NN(Cc2ccccc2)C(=O)/C1=C/c1ccc(N(C)C)cc1 | 5.11
COc1ccc(-c2nsc(SCC(=O)NCC3CCCO3)n2)cc1 (stereo not shown) | 11.9
CCO/C(C)=C1/SC(=S)NC1=O | 3.01
CCN(CC(=O)Nc1cc(S(=O)(=O)N2CCCCC2)ccc1C)Cc1ccccc1 | -14.6
Cc1ccc(C)c(Oc2coc3cc(OC(=O)c4cccs4)ccc3c2=O)c1 | 0.666
CCc1cccc(C)c1NC(=O)CN1CCN(S(=O)(=O)c2ccc(C(C)(C)C)cc2)CC1 | -7.39

SMILES | hERG current change (%, negative = inhibition) at 10uM [%]
Cc1cc(-c2nc(C)c(C(=O)NN)s2)no1 | 25.5
Cc1ccc(Sc2ncccc2COC(=O)Nc2c(C)cccc2C)cc1 | -3.24
C/C(N)=C(/C#N)C(=O)COC(=O)c1ccc(C)c(S(=O)(=O)N2CCCCC2)c1 | -1.36
Cc1cc(NC(=O)COC(=O)c2ccc([N+](=O)[O-])cc2Cl)no1 | -8.5
CC1CCCCC1NC(=O)CCCCCn1c(=S)[nH]c2ccsc2c1=O (stereo not shown) | 21.4
C=CCN(CC=C)C(=S)Nc1ccc(OC)c(OC)c1 | 10.3
Oc1ccc(Cl)cc1N=Nc1ccccc1 | 0.302
O=C1c2ccccc2NC(c2ccccc2O)N1NS(=O)(=O)c1ccccc1 (stereo not shown) | 3.28
Cc1nonc1NC(=O)CSc1nc2ccccc2cc1C#N | 3.73
Cc1ccc(-c2nnn(CC(=O)N(Cc3cccs3)C(C(=O)NCC3CCCO3)c3ccco3)n2)o1 (stereo not shown) | -24
O=c1ccc(Cc2ccccn2)n[nH]1 | 12.9
COc1ccc(NC(=O)c2cc3nc(-c4ccccc4)cc(C)n3n2)cc1OC | -33
CCOC(=O)C1(CCOc2ccccc2)CCN(Cc2cccs2)CC1 | -81.8
Cn1c(=O)[nH]c(=O)c2c1nc(CN1CCN(c3ccccc3F)CC1)n2CCCc1ccccc1 | -33.7
O=C(CSc1nnc2c(Cl)cc(C(F)(F)F)cn12)Nc1ccc2c(c1)OCO2 | -2.29
COC(=O)c1cc(=O)n(-c2c(Cl)cc(C(F)(F)F)cc2Cl)[nH]1 | 14.8
CCOC(=O)C1(c2ccccc2)CCN(CCC(C#N)(c2ccccc2)c2ccccc2)CC1.Cl | -25
COCCNC(=O)/C(C#N)=C/c1cc(Br)c(O)c(OC)c1 | 21.3
Cc1ccc(C(=O)NC2CCN(C(=O)NCc3ccccc3)CC2)cc1 | -0.364
CC(C)CSc1nc2ccccc2n1CC(=O)O | 7.22
CCOc1ccc(-c2nc(-c3cccnc3)no2)cc1 | -7
O=C(Nc1cccc2c1C(=O)NC2=O)c1cccc(N2C(=O)CCC2=O)c1 | 1.35

SMILES | hERG current change (%, negative = inhibition) at 10uM [%]
O=C(CNC(=O)c1cccc(F)c1)N/N=C/c1cccs1 | 17.4
C=CCOC(=O)C1=C[C@H](c2coc3ccccc3c2=O)C[C@H](OCCCCO)O1 | -42.5
CC(C)Oc1ccc(N2CC(C(=O)OCC(=O)NCc3ccccc3)CC2=O)cc1 (stereo not shown) | -24.6
FC(F)(F)c1cccc(Cn2nnnc2-c2cc(Cl)cc(Cl)c2)c1 | -2.3
O=S(=O)(Nc1ccc2c(c1)OCCO2)c1cnc[nH]1 | 7.8
O=C(C1CCCN(S(=O)(=O)c2ccccc2)C1)N1CCN(c2ccc(F)cc2)CC1 (stereo not shown) | -75.7
O=C(c1ccco1)N1CCN(C(=O)c2ccc(-c3ccc(Cl)cc3)o2)CC1 | -78.8
CC1N/C(=C\C(=O)c2ccccc2)N(O)C1(C)C (stereo not shown) | 11.8
CCOc1ccc(S(=O)(=O)N2CCC(C(N)=O)CC2)c2ccccc12 | -15.4
O=C(NC1CCCC1)c1cc2cc(Br)ccc2o1 | 4.63
CN(c1ccccc1)S(=O)(=O)c1cccc(NC(=O)CCN2C(=O)C3CCCCC3C2=O)c1 (stereo not shown) | -18.4
CCN(CC)c1ccc(N2C(=O)/C(=C\c3cccs3)SC2=S)cc1 | 1.45
COc1ccc(CNS(=O)(=O)c2ccc(-n3cnnn3)c(OC)c2)cc1 | -17.9
COCCNC(=O)CSc1nc2nc(C)cc(C)n2n1 | 21.8
COc1ccc(C(=O)C[n+]2cccc(Br)c2)cc1.[Br-] | 5.82
Cc1snc(SCc2ccc(F)cc2)c1C#N | 1.8
COc1ccc(CNC(=O)CCNS(=O)(=O)c2ccc3c(c2)oc(=O)n3C)cc1 | 7.1
COc1ccc(OCC(=O)N2CCN(C(C)C)CC2)cc1.O=C(O)C(=O)O | 6.62
COc1ccc(NS(=O)(=O)c2ccc(C)c(C(=O)NC3CCN(Cc4ccccc4)CC3)c2)cc1 | -51.1
CC(=O)N1CCN(C(=O)c2cccc(S(=O)(=O)NCc3ccccc3)c2)CC1 | 5.5
O=C(O)c1cc(-c2ccc3c(c2)OCO3)nc2ccc(Br)cc12 | 9.07
COc1cc(S(=O)(=O)N2CCCC3(CCCCC3)C2)ccc1-n1cnnn1 | -8.99

SMILES | hERG current change (%, negative = inhibition) at 10uM [%]
CC(C)(C)c1ccccc1NC(=O)N1CCNC(=O)C1CC(=O)Nc1ccc(F)cc1 (stereo not shown) | 30.6
S=c1[nH]c(-c2cccs2)cn1-c1ccccc1 | 7.46
CN(C)S(=O)(=O)c1ccc(NC(=O)Cn2c(-c3ccccc3)noc2=O)cc1 | 1.23
Cn1c(N)c(C(=O)COC(=O)c2ccc(Cl)c(S(=O)(=O)N3CCCC3)c2)c(=O)n(C)c1=O | -43.9
CNC(=O)CN(C1CCCCC1)S(=O)(=O)c1ccc(F)cc1 | -9.15
Cl.O=C(CN1CCCCCC1)Nc1cccc(Br)c1 | -47.3
COc1ccc2oc(=O)c(C(=O)N3CCN(c4ccccc4)CC3)cc2c1 | -15.3
O=S1(=O)CCOC[C@H](Cc2ccccc2)N1Cc1ccccc1 | -37.8
NC1=NC(c2ccccc2)N=C(Nc2ccccc2)N1 (stereo not shown) | 7.79
O=C(NC1CC1)C(=O)c1c(-c2ccccc2)[nH]c2ccccc12 | 3.36
Cc1ccc2c(c1)/C(=C/c1ccccc1)C(=O)N2 | 3.06
Cc1cc(=O)[nH]c(N/N=C/c2c(C)nn(-c3ccccc3Cl)c2Cl)n1 | 2.67
Cc1ccc(S(=O)(=O)Cn2nnnc2C(CC(C)C)N2CCN(C(=O)c3ccco3)CC2)cc1.Cl (stereo not shown) | -38.1
Cc1ccc(/C=N/NC(=O)c2n[nH]c3c2CCCC3)cc1 | 5.09
CCc1ccc(S(=O)(=O)N/N=C\c2ccc([N+](=O)[O-])o2)cc1 | 22.9
COc1ccc(NC(=O)CN(C)C(=O)c2cccc(S(=O)(=O)N3CCN(C)CC3)c2)cc1 | -4.92
Cc1onc(-c2c(Cl)cccc2Cl)c1NC(=O)NNc1ccccn1 | -11.7
O=C(COc1ccc(Cl)cc1)NCc1cn2cc(Cl)ccc2n1 | -21.1
CCOC(=O)c1c(NC(=O)Cn2nc(C(F)F)cc2C(F)F)sc(C)c1C | 2.58
O=C(c1ccc(Br)cc1)N1CCC(C(=O)N2CCN(c3ccccc3)CC2)CC1 | -68.5
Cn1c2ccccc2c2c(C(=O)N3CCN(C(=O)c4ccco4)CC3)cn(C3CCCCC3)c(=O)c21 | -24.8
Cc1cc(C)n(-c2ccc(C(=O)NCc3ccc(F)cc3)cc2)n1 | -48.7
